B1: TEV protease; numbered along this chain (parent)
chain: MGESLFKGPRDYNPISSSICHLTNESDGHTTSLYGIGFGPFIITNKHLFRRNNGTLVVQSLHGVFKVKDTTTLQQHLVDGRDMIIIRMPKDFPPFPQKLKFREPQREERICLVTTNFQTKSMSSMVSDTSCTFPSGDGIFWKHWIQTKDGQCGSPLVSTRDGFIVGIHSASNFTNTNNYFTSVPKNFMELLTNQEAQQWVSGWRLNADSVLWGGHKVFMVKPEEPFQPVKEATQL

The test covers variants of B1. In words: raw area under fraction-flipped curve 0-4 h after induction (AUC4h, not background-subtracted), DNA-recorder readout of cleavage of the substrate (dimensionless); higher = more cleavage of the substrate by the protease variant. Conditions: temperature: 34 °C; time window: 0-4 h after rhamnose induction. As for the experimental part: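 In vivo DNA recorder in E. coli TOP10(DE3) ΔrhaA at 34 °C. Each TEVp single-site mutant (parent TEVp 0) is paired with a single-site variant of the 7-mer TEVs (canonical ENLYFQ|S). The substrate sits between flexible linkers in a Bxb1-sfGFP-TEVs-SsrA fusion, so cleavage stabilises Bxb1 and speeds flipping of a recombination array, read by NGS. The value is the raw area under the fraction-flipped curve over 0-4 h after rhamnose induction (AUC4h), with ≥20 reads per time point. It is not background-subtracted; inactive controls average about 0.047.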

The other results are listed elsewhere or left out. Sequences were assembled here from the parent chain. Inactive controls read about 0.05.
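Also: Bxb1 expression induced with 0.2% (w/v) L-rhamnose at OD600 near 0.5, cultures sampled hourly, flipped fraction per protease–substrate barcode pair counted by paired-end Illumina sequencing.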

For MGESLFKGPRDYNPISSSICHLTNESDGHTTSLYGIGFGPFIITNKHLFRRNNGTLVVQSLHGVFKVKDTTTLQQHLVDGRDMIIIRMPKDFPPFPQKLKFREPQREERICLVTTNFQTKSMSSMVSDTSCTFPSGDGIFWKHWIQTKDGQCGSPLVSTRDGFIVGIHSASNFTNTNNYFTSVPKNYMELLTNQEAQQWVSGWRLNADSVLWGGHKVFMVKPEEPFQPVKEATQL [F187Y], the “area with substrate ENLYFAS” value stood at 0.0643, the “area with substrate ENLYFCS” value was 0.0633, the “area with substrate ENLYFDS” value came out at 0.0519 and the “area with substrate ENLYFFS” value came to 0.0645. The “area with substrate ENLYFHS” value was found to be 0.036, the “area with substrate ENLYFIS” value turned out to be 0.0387, the “area with substrate ENLYFKS” value is 0.0512 and the “area with substrate ENLYFLS” value was determined as 0.0632. Moreover, the “area with substrate ENLYFMS” value came out at 0.0579, the “area with substrate ENLYFPS” value is 0.0597, the “area with substrate ENLYFSS” value is 0.0565 and the “area with substrate ENLYFTS” value is 0.0641. Further, the “area with substrate ENLYFVS” value amounted to 0.044, the “area with substrate ENLYFWS” value stood at 0.0553 and the “area with substrate ENLYFYS” value came to 0.0583.

In the case of MGESLFKGPRDYNPISSSICHLTNESDGHTTSLYGIGFGPFIITNKHLFRRNNGTLVVQSLHGVFKVKDTTTLQQHLVDGRDMIIIRMPKDFPPFPQKLKFREPQREERICLVTTNFQTKSMSSMVSDTSCTFPSGDGIFWKHWIQTKDGQCGSPLVSTRDGFIVGIHSASNFTNTNNYFTSVPKNDMELLTNQEAQQWVSGWRLNADSVLWGGHKVFMVKPEEPFQPVKEATQL [F187D], the “area with substrate ENLYFAS” value turned out to be 0.0559, the “area with substrate ENLYFDS” value came out at 0.0487, the “area with substrate ENLYFES” value came to 0.0391 and the “area with substrate ENLYFFS” value stood at 0.0786. The “area with substrate ENLYFHS” value stood at 0.0522, the “area with substrate ENLYFIS” value turned out to be 0.0314, the “area with substrate ENLYFLS” value was determined as 0.0558 and the “area with substrate ENLYFMS” value is 0.0504. For the same variant, the “area with substrate ENLYFNS” value stood at 0.0534, the “area with substrate ENLYFPS” value came to 0.0381, the “area with substrate ENLYFRS” value worked out at 0.0609 and the “area with substrate ENLYFSS” value came out at 0.054. The “area with substrate ENLYFTS” value came to 0.0586 and the “area with substrate ENLYFYS” value was determined as 0.0669.

In the case of MGESLFKGPRDYNPISSSICHLTNESDGHTTSLYGIGFGPFIITNKHLFRRNNGTLVVQSLHGVFKVKDTTTLQQHLVDGRDMIIIRMPKDFPPFPQKLKFREPQREERICLVTTNFQTKSMSSMVSDTSCTFPSGDGIFWKHWIQTKDGQCGSPLVSTRDGFIVGIHSASNFTNTNNYFTSVPKNRMELLTNQEAQQWVSGWRLNADSVLWGGHKVFMVKPEEPFQPVKEATQL [F187R], the “area with substrate ENLYFAS” value was 0.0632, the “area with substrate ENLYFCS” value worked out at 0.048, the “area with substrate ENLYFES” value was found to be 0.0475 and the “area with substrate ENLYFHS” value was determined as 0.0529. Moreover, the “area with substrate ENLYFIS” value was found to be 0.0534, the “area with substrate ENLYFKS” value stood at 0.0467, the “area with substrate ENLYFLS” value turned out to be 0.0425 and the “area with substrate ENLYFMS” value was 0.0549. Moreover, the “area with substrate ENLYFNS” value stood at 0.0529, the “area with substrate ENLYFPS” value was determined as 0.0525, the “area with substrate ENLYFSS” value turned out to be 0.0537 and the “area with substrate ENLYFVS” value was 0.0354. For the same variant, the “area with substrate ENLYFWS” value was found to be 0.0689 and the “area with substrate ENLYFYS” value came out at 0.0485.

Regarding MGESLFKGPRDYNPISSSICHLTNESDGHTTSLYGIGFGPFIITNKHLFRRNNGTLVVQSLHGVFKVKDTTTLQQHLVDGRDMIIIRMPKDFPPFPQKLKFREPQREERICLVTTNFQTKSMSSMVSDTSCTFPSGDGIFWKHWIQTKDGQCGSPLVSTRDGFIVGIHSASNFTNTNNYFTSVPCNFMELLTNQEAQQWVSGWRLNADSVLWGGHKVFMVKPEEPFQPVKEATQL [K185C], the “area with substrate ENLYFAS” value is 0.0424, the “area with substrate ENLYFES” value came out at 0.0798, the “area with substrate ENLYFFS” value came out at 0.0589 and the “area with substrate ENLYFHS” value was 0.0339. Further, the “area with substrate ENLYFIS” value worked out at 0.0553, the “area with substrate ENLYFKS” value was 0.0523, the “area with substrate ENLYFLS” value came to 0.0654 and the “area with substrate ENLYFMS” value came to 0.0978. Further, the “area with substrate ENLYFNS” value came to 0.0551, the “area with substrate ENLYFPS” value worked out at 0.0578, the “area with substrate ENLYFRS” value came out at 0.0597 and the “area with substrate ENLYFSS” value is 0.0504. Besides, the “area with substrate ENLYFTS” value amounted to 0.058, the “area with substrate ENLYFVS” value is 0.0505, the “area with substrate ENLYFWS” value came out at 0.0565 and the “area with substrate ENLYFYS” value worked out at 0.0629.

As to MGESLFKGPRDYNPISSSICHLTNESDGHTTSLYGIGFGPFIITNKHLFRRNNGTLVVQSLHGVFKVKDTTTLQQHLVDGRDMIIIRMPKDFPPFPQKLKFREPQREERICLVTTNFQTKSMSSMVSDTSCTFPSGDGIFWKHWIQTKDGQCGSPLVSTRDGFIVGIHSASNFTNTNNYFTSVPMNFMELLTNQEAQQWVSGWRLNADSVLWGGHKVFMVKPEEPFQPVKEATQL [K185M], the “area with substrate ENLYFAS” value was determined as 0.043, the “area with substrate ENLYFCS” value was 0.0554, the “area with substrate ENLYFES” value is 0.0834 and the “area with substrate ENLYFFS” value was found to be 0.0628. Besides, the “area with substrate ENLYFHS” value turned out to be 0.0669, the “area with substrate ENLYFIS” value turned out to be 0.0599, the “area with substrate ENLYFKS” value came out at 0.056 and the “area with substrate ENLYFLS” value was 0.0575. The “area with substrate ENLYFMS” value is 0.0678, the “area with substrate ENLYFNS” value was 0.0644, the “area with substrate ENLYFPS” value amounted to 0.058 and the “area with substrate ENLYFRS” value was determined as 0.0535. Moreover, the “area with substrate ENLYFSS” value stood at 0.045, the “area with substrate ENLYFTS” value came to 0.0619, the “area with substrate ENLYFVS” value was 0.0231 and the “area with substrate ENLYFWS” value worked out at 0.0601. For the same variant, the “area with substrate ENLYFYS” value was 0.0599.

Regarding MGESLFKGPRDYNPISSSICHLTNESDGHTTSLYGIGFGPFIITNKHLFRRNNGTLVVQSLHGVFKVKDTTTLQQHLVDGRDMIIIRMPKDFPPFPQKLKFREPQREERICLVTTNFQTKSMSSMVSDTSCTFPSGDGIFWKHWIQTKDGQCGSPLVSTRDGFIVGIHSASNFTNTNNYFTSVPSNFMELLTNQEAQQWVSGWRLNADSVLWGGHKVFMVKPEEPFQPVKEATQL [K185S], the “area with substrate ENLYFAS” value came to 0.0752, the “area with substrate ENLYFDS” value came out at 0.0916, the “area with substrate ENLYFES” value worked out at 0.0711 and the “area with substrate ENLYFFS” value amounted to 0.0505. In addition, the “area with substrate ENLYFIS” value stood at 0.0568, the “area with substrate ENLYFKS” value was determined as 0.0712, the “area with substrate ENLYFLS” value was 0.0623 and the “area with substrate ENLYFMS” value turned out to be 0.0494. Further, the “area with substrate ENLYFPS” value turned out to be 0.0553, the “area with substrate ENLYFTS” value is 0.0605 and the “area with substrate ENLYFVS” value worked out at 0.0603.

In the case of MGESLFKGPRDYNPISSSICHLTNESDGHTTSLYGIGFGPFIITNKHLFRRNNGTLVVQSLHGVFKVKDTTTLQQHLVDGRDMIIIRMPKDFPPFPQKLKFREPQREERICLVTTNFQTKSMSSMVSDTSCTFPSGDGIFWKHWIQTKDGQCGSPLVSTRDGFIVGIHSASNFTNTNNYFTSVPKNFMELLTNQRAQQWVSGWRLNADSVLWGGHKVFMVKPEEPFQPVKEATQL [E195R], the “area with substrate ENLYFAS” value was 0.0462, the “area with substrate ENLYFCS” value was found to be 0.0443, the “area with substrate ENLYFFS” value was 0.0854 and the “area with substrate ENLYFGS” value worked out at 0.0635. Besides, the “area with substrate ENLYFHS” value amounted to 0.0601, the “area with substrate ENLYFIS” value is 0.0451, the “area with substrate ENLYFKS” value was determined as 0.0693 and the “area with substrate ENLYFMS” value was determined as 0.0641. The “area with substrate ENLYFPS” value came to 0.0616, the “area with substrate ENLYFRS” value turned out to be 0.0585, the “area with substrate ENLYFSS” value stood at 0.0649 and the “area with substrate ENLYFTS” value was determined as 0.0766. Moreover, the “area with substrate ENLYFVS” value came out at 0.0504, the “area with substrate ENLYFWS” value came to 0.0508 and the “area with substrate ENLYFYS” value was 0.0622.

As for MGESLFKGPRDYNPISSSICHLTNESDGHTTSLYGIGFGPFIITNKHLFRRNNGTLVVQSLHGVFKVKDTTTLQQHLVDGRDMIIIRMPKDFPPFPQKLKFREPQREERICLVTTNFQTKSMSSMVSDTSCTFPSGDGIFWKHWIQTKDGQCGSPLVSTRDGFIVGIHSASNFTNTNNYFTSVPKNFMELLTNQNAQQWVSGWRLNADSVLWGGHKVFMVKPEEPFQPVKEATQL [E195N], the “area with substrate ENLYFAS” value is 0.0634, the “area with substrate ENLYFCS” value is 0.0518, the “area with substrate ENLYFFS” value turned out to be 0.0712 and the “area with substrate ENLYFHS” value was 0.0403. Further, the “area with substrate ENLYFIS” value turned out to be 0.0518, the “area with substrate ENLYFMS” value turned out to be 0.0608, the “area with substrate ENLYFNS” value is 0.0581 and the “area with substrate ENLYFPS” value turned out to be 0.0694. The “area with substrate ENLYFRS” value turned out to be 0.0637, the “area with substrate ENLYFSS” value turned out to be 0.0797, the “area with substrate ENLYFWS” value is 0.0527 and the “area with substrate ENLYFYS” value was 0.0491.

Take MGESLFKGPRDYNPISSSICHLTNESDGHTTSLYGIGFGPFIITNKHLFRRNNGTLVVQSLHGVFKVKDTTTLQQHLVDGRDMIIIRMPKDFPPFPQKLKFREPQREERICLVTTNFQTKSMSSMVSDTSCTFPSGDGIFWKHWIQTKDGQCGSPLVSTRDGFIVGIHSASNFTNTNNYFTSVPKNFMELLTNQEAVQWVSGWRLNADSVLWGGHKVFMVKPEEPFQPVKEATQL [Q197V]: the “area with substrate ENLYFAS” value was determined as 0.0632, the “area with substrate ENLYFCS” value is 0.0483, the “area with substrate ENLYFDS” value amounted to 0.0671 and the “area with substrate ENLYFES” value worked out at 0.0639. Moreover, the “area with substrate ENLYFFS” value worked out at 0.0636, the “area with substrate ENLYFGS” value worked out at 0.0522, the “area with substrate ENLYFHS” value turned out to be 0.0523 and the “area with substrate ENLYFIS” value is 0.0556. Besides, the “area with substrate ENLYFLS” value came out at 0.0613, the “area with substrate ENLYFMS” value was determined as 0.0665, the “area with substrate ENLYFNS” value was found to be 0.0587 and the “area with substrate ENLYFPS” value turned out to be 0.0654. Also, the “area with substrate ENLYFRS” value came to 0.0548, the “area with substrate ENLYFSS” value turned out to be 0.0818 and the “area with substrate ENLYFYS” value stood at 0.0629.
